The other results are listed elsewhere or left out. Single values are uncertain, as repeats are few or missing.
Each molecule was assayed on MEL-HO (assay: cell count relative to DMSO control; melanoma cells; higher = more viable cells). Details: library dose: low library concentration; 72 h.
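Note: cell number obtained by counting DAPI-stained nuclei in high-throughput microscope images with image analysis software, screen run in 1,536-well plates.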

Structure (SMILES)	cell count
O=S(=O)(c1ccccc1)N(CC(F)(F)F)c1ccc(C(O)(C(F)(F)F)C(F)(F)F)cc1 + CC(C)CCN1c2nc(Nc3cc(F)c(O)c(F)c3)ncc2N(C)C(=O)C1C [BID1870] (first compound 1.4 µM, partner dose 0.2 µM)	90.6%
N#Cc1c(O)c2c(-c3ccc(-c4ccccc4O)cc3)csc2[nH]c1=O + Oc1nc(-c2ccc(C(F)(F)F)cc2)nc2c1CSCC2 [XAV939] (first compound 2 µM, partner dose 2 µM)	83.8%
N#Cc1c(O)c2c(-c3ccc(-c4ccccc4O)cc3)csc2[nH]c1=O + CCN(CC)CCCCNc1ncc2cc(-c3cc(OC)cc(OC)c3)c(NC(=O)NC(C)(C)C)nc2n1 [PD173074] (first compound 2 µM, partner dose 0.1 µM)	92%
COc1ccc2c(c1)CCC1C2CCC2(C)C(NCCCCCCN3C(=O)C=CC3=O)CCC12 (centres undefined) + O=C1NC(=O)/C(=C/c2ccc(-c3ccc(F)cc3O)o2)S1 [AS252424] (first compound 0.4 µM, partner dose 1 µM)	109%
COc1ccc(COc2ccc(Cc3cnc(N)nc3N)cc2OC)cc1 + Cn1cc(/C=C2\C(=O)Nc3cccnc32)c2ccccc21 [GW441756] (first compound 1 µM, partner dose 0.4 µM)	103%
Oc1cc(-c2nc(-c3ccccc3)[nH]c2-c2ccncc2)ccc1Cl + CCCCCCCCCCCC1=C(O)C(=O)C=C(O)C1=O [Embelin] (first compound 0.2 µM, partner dose 1.2 µM)	88.2%
O=C(O)C(=O)Nc1sc2c(c1C(=O)O)CCNC2 + Cn1cc(/C=C2\C(=O)Nc3cccnc32)c2ccccc21 [GW441756] (first compound 1.66667 µM, partner dose 0.4 µM)	87.6%
O=C(O)C(=O)Nc1sc2c(c1C(=O)O)CCNC2 + CCCCCCCCCCCC1=C(O)C(=O)C=C(O)C1=O [Embelin] (first compound 1.66667 µM, partner dose 1.2 µM)	119%
COc1ccc2c(c1)CCC1C2CCC2(C)C(NCCCCCCN3C(=O)C=CC3=O)CCC12 (centres undefined) + CCN(CC)CCCCNc1ncc2cc(-c3cc(OC)cc(OC)c3)c(NC(=O)NC(C)(C)C)nc2n1 [PD173074] (first compound 0.4 µM, partner dose 0.1 µM)	86.3%
COC(=O)c1sccc1S(=O)(=O)Nc1ccc(Nc2ccccc2)cc1OC + COc1cc2ncnc(Nc3ccc(Oc4ccccc4)cc3)c2cc1OC [SrcI1] (first compound 1 µM, partner dose 2 µM)	96.3%
CCN(CC)CCCCNc1ncc2cc(-c3cc(OC)cc(OC)c3)c(NC(=O)NC(C)(C)C)nc2n1 + COc1ccc(COc2ccc(Cc3cnc(N)nc3N)cc2OC)cc1 [GW2580] (first compound 0.1 µM, partner dose 1 µM)	104%
COc1cc(N2CCC(N3CCN(C)CC3)CC2)ccc1Nc1ncc(Cl)c(Nc2ccccc2S(=O)(=O)C(C)C)n1 + CC(C)CCN1c2nc(Nc3cc(F)c(O)c(F)c3)ncc2N(C)C(=O)C1C [BID1870] (first compound 0.08 µM, partner dose 0.2 µM)	80.1%
c1cc(-c2cnn3cc(-c4ccc(OCCN5CCCCC5)cc4)cnc23)ccn1 [Dorsomorphin] + Cn1cc(/C=C2\C(=O)Nc3cccnc32)c2ccccc21 [GW441756] (first compound 0.4 µM, partner dose 0.4 µM)	99.2%
Cn1cc(/C=C2\C(=O)Nc3cccnc32)c2ccccc21 + CCCCCCCCCCCC1=C(O)C(=O)C=C(O)C1=O [Embelin] (first compound 0.4 µM, partner dose 1.2 µM)	99.5%
Oc1nc(-c2ccc(C(F)(F)F)cc2)nc2c1CSCC2 + Cn1cc(/C=C2\C(=O)Nc3cccnc32)c2ccccc21 [GW441756] (first compound 2 µM, partner dose 0.4 µM)	92.6%
COc1ccc(-c2ccc3c(N4CCOCC4)nc(N4C[C@@H](C)O[C@@H](C)C4)nc3n2)cc1CO + Cc1cc([N+](=O)[O-])ccc1NS(=O)(=O)c1cc(Cl)ccc1Cl [FH535] (first compound 0.02 µM, partner dose 1 µM)	73.3%
COc1cc(N2CCC(N3CCN(C)CC3)CC2)ccc1Nc1ncc(Cl)c(Nc2ccccc2S(=O)(=O)C(C)C)n1 + Cn1cc(/C=C2\C(=O)Nc3cccnc32)c2ccccc21 [GW441756] (first compound 0.08 µM, partner dose 0.4 µM)	83.5%

Structure (SMILES)	cell count
CCN(CC)CCCCNc1ncc2cc(-c3cc(OC)cc(OC)c3)c(NC(=O)NC(C)(C)C)nc2n1 + Cn1cc(/C=C2\C(=O)Nc3cccnc32)c2ccccc21 [GW441756] (first compound 0.1 µM, partner dose 0.4 µM)	109%
N#Cc1c(O)c2c(-c3ccc(-c4ccccc4O)cc3)csc2[nH]c1=O + O=c1cc(-c2cccc3c2Sc2ccccc2S3)oc(N2CCOCC2)c1 [KU55933] (first compound 2 µM, partner dose 1 µM)	112%
COc1ccc(COc2ccc(Cc3cnc(N)nc3N)cc2OC)cc1 + CC(C)CCN1c2nc(Nc3cc(F)c(O)c(F)c3)ncc2N(C)C(=O)C1C [BID1870] (first compound 1 µM, partner dose 0.2 µM)	94.4%
COc1cc2ncnc(Nc3ccc(Oc4ccccc4)cc3)c2cc1OC + c1cc(-c2cnn3cc(-c4ccc(OCCN5CCCCC5)cc4)cnc23)ccn1 [Dorsomorphin] (first compound 2 µM, partner dose 0.4 µM)	102%
O=C(O)C(=O)Nc1sc2c(c1C(=O)O)CCNC2 + c1cc(-c2cnn3cc(-c4ccc(OCCN5CCCCC5)cc4)cnc23)ccn1 [Dorsomorphin] (first compound 1.66667 µM, partner dose 0.4 µM)	86.1%
COC(=O)c1sccc1S(=O)(=O)Nc1ccc(Nc2ccccc2)cc1OC + Oc1nc(-c2ccc(C(F)(F)F)cc2)nc2c1CSCC2 [XAV939] (first compound 1 µM, partner dose 2 µM)	92.1%
O=C1NC(=O)/C(=C/c2ccc(-c3ccc(F)cc3O)o2)S1 + COc1cc(N2CCC(N3CCN(C)CC3)CC2)ccc1Nc1ncc(Cl)c(Nc2ccccc2S(=O)(=O)C(C)C)n1 [NVP-TAE684] (first compound 1 µM, partner dose 0.08 µM)	82.7%
O=S(=O)(c1ccccc1)N(CC(F)(F)F)c1ccc(C(O)(C(F)(F)F)C(F)(F)F)cc1 + CCCCCCCCCCCC1=C(O)C(=O)C=C(O)C1=O [Embelin] (first compound 1.4 µM, partner dose 1.2 µM)	95.7%
O=C(O)C(=O)Nc1sc2c(c1C(=O)O)CCNC2 + O=C1NC(=O)/C(=C/c2ccc(-c3ccc(F)cc3O)o2)S1 [AS252424] (first compound 1.66667 µM, partner dose 1 µM)	104%
Cc1cc([N+](=O)[O-])ccc1NS(=O)(=O)c1cc(Cl)ccc1Cl + CC(C)CCN1c2nc(Nc3cc(F)c(O)c(F)c3)ncc2N(C)C(=O)C1C [BID1870] (first compound 1 µM, partner dose 0.2 µM)	90.9%
COc1ccc2c(c1)CCC1C2CCC2(C)C(NCCCCCCN3C(=O)C=CC3=O)CCC12 (centres undefined) + O=S(=O)(c1ccccc1)N(CC(F)(F)F)c1ccc(C(O)(C(F)(F)F)C(F)(F)F)cc1 [T0901317] (first compound 0.4 µM, partner dose 1.4 µM)	94.3%
Oc1nc(-c2ccc(C(F)(F)F)cc2)nc2c1CSCC2 + CC(C)CCN1c2nc(Nc3cc(F)c(O)c(F)c3)ncc2N(C)C(=O)C1C [BID1870] (first compound 2 µM, partner dose 0.2 µM)	83.9%
COc1cc(N2CCC(N3CCN(C)CC3)CC2)ccc1Nc1ncc(Cl)c(Nc2ccccc2S(=O)(=O)C(C)C)n1 + O=c1cc(-c2cccc3c2Sc2ccccc2S3)oc(N2CCOCC2)c1 [KU55933] (first compound 0.08 µM, partner dose 1 µM)	87.7%
N#Cc1c(O)c2c(-c3ccc(-c4ccccc4O)cc3)csc2[nH]c1=O + CCCCCCCCCCCC1=C(O)C(=O)C=C(O)C1=O [Embelin] (first compound 2 µM, partner dose 1.2 µM)	99.1%
c1cc(-c2cnn3cc(-c4ccc(OCCN5CCCCC5)cc4)cnc23)ccn1 [Dorsomorphin] + O=c1cc(-c2cccc3c2Sc2ccccc2S3)oc(N2CCOCC2)c1 [KU55933] (first compound 0.4 µM, partner dose 1 µM)	104%
COc1ccc(-c2ccc3c(N4CCOCC4)nc(N4C[C@@H](C)O[C@@H](C)C4)nc3n2)cc1CO + CCN(CC)CCCCNc1ncc2cc(-c3cc(OC)cc(OC)c3)c(NC(=O)NC(C)(C)C)nc2n1 [PD173074] (first compound 0.02 µM, partner dose 0.1 µM)	79.4%
N#Cc1c(O)c2c(-c3ccc(-c4ccccc4O)cc3)csc2[nH]c1=O + COc1ccc2c(c1)CCC1C2CCC2(C)C(NCCCCCCN3C(=O)C=CC3=O)CCC12 [U73122] (first compound 2 µM, partner dose 0.4 µM)	87.5%

Reference: the supplement of paper PMC4604168 (melanoma cell lines)
